Reference: the supplement of paper PMC9046079
± gives the standard deviation of the averaged measurements. The list shows a part of the results.

How the values were obtained:
[1] = test system: murine small intestinal organoids (ENR+CD Paneth differentiation); assay: cellular ATP (CellTiter-Glo 3D) relative to plate median (log10 fold change); higher = more viable cells; conditions: 6 d
[2] = test system: murine small intestinal organoids (ENR+CD Paneth differentiation); assay: carbachol-stimulated secreted lysozyme activity relative to plate median (log10 fold change); higher = more Paneth cell lysozyme secretion; conditions: 6 d, carbachol 10 µM
[3] = test system: murine small intestinal organoids (ENR+CD Paneth differentiation); assay: basal (non-stimulated) secreted lysozyme activity relative to plate median (log10 fold change); higher = more Paneth cell lysozyme secretion; conditions: 6 d
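Throughout, for basal (non-stimulated) secreted lysozyme activity relative to plate median: ISC-enriched organoid precursors grown as 2.5D pseudo-monolayer on Matrigel, compound given on day 0 and day 3, plate values LOESS-normalized before median fold change, three murine donors.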
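Throughout, for cellular ATP (CellTiter-Glo 3D) relative to plate median: 2.5D pseudo-monolayer culture of ISC-enriched organoids partly embedded atop Matrigel, compound added on day 0 and again on day 3, per-plate LOESS correction before median fold change.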

Structure (SMILES)	cellular ATP (log10) ([1]; 0.08 µM)	cellular ATP (log10) ([1]; 0.4 µM)	cellular ATP (log10) ([1]; 2 µM)	cellular ATP (log10) ([1]; 10 µM)	carbachol-stimulated secreted lysozyme activity (log10) ([2]; 0.08 µM)	carbachol-stimulated secreted lysozyme activity (log10) ([2]; 0.4 µM)	carbachol-stimulated secreted lysozyme activity (log10) ([2]; 2 µM)	carbachol-stimulated secreted lysozyme activity (log10) ([2]; 10 µM)	basal (log10) ([3]; 0.08 µM)	basal (log10) ([3]; 0.4 µM)	basal (log10) ([3]; 2 µM)	basal (log10) ([3]; 10 µM)
Cc1ccc(S(=O)(=O)Cc2nc(-c3ccc(C(=O)NCc4cccnc4)cc3)oc2C)cc1	-0.634 ± 1.3	-0.986 ± 0.98	-0.561 ± 0.67	-0.702 ± 0.83	-0.388 ± 0.12	-0.141 ± 0.31	-0.106 ± 0.29	-0.196 ± 0.23	-0.168 ± 0.15	-0.0882 ± 0.15	-0.0573 ± 0.13	-0.0631 ± 0.15
O=C(Nc1ccccc1)c1cc([N+](=O)[O-])ccc1Cl	0.115 ± 0.22	0.0412 ± 0.19	0.212 ± 0.11	0.133 ± 0.18	-0.00908 ± 0.042	0.0449 ± 0.0058	0.0529 ± 0.053	0.004 ± 0.022	0.035 ± 0.069	0.0979 ± 0.077	0.046 ± 0.078	0.0304 ± 0.039
O=C(c1ccc(F)cc1)N1CCCC(c2nc(-c3ccc(F)cc3)no2)C1 (centres undefined)	0.115 ± 0.2	-0.0341 ± 0.1	-0.21 ± 0.15	-0.0395 ± 0.14	0.1 ± 0.083	0.19 ± 0.15	-0.0441 ± 0.19	-0.122 ± 0.12	0.269 ± 0.12	0.0525 ± 0.041	-0.0328 ± 0.12	-0.0357 ± 0.12
Cc1cnc(NC(=O)Nc2cc(Br)c(C)cc2OC[C@@H]2CNCCO2)cn1	-0.0043 ± 0.17	-0.238 ± 0.04	-0.396 ± 0.13	-0.983 ± 0.23	0.0215 ± 0.014	-0.162 ± 0.11	-0.306 ± 0.13	-0.418 ± 0.026	-0.00526 ± 0.056	-0.0909 ± 0.071	-0.193 ± 0.058	-0.233 ± 0.067
O=C(O)c1ccc(N2C(=O)C(=Cc3ccc(-c4ccc([N+](=O)[O-])cc4)o3)C=C2c2ccccc2)cc1	0.246 ± 0.13	0.362 ± 0.47	0.00625 ± 0.093	-0.0108 ± 0.26	0.12 ± 0.08	-0.025 ± 0.095	0.0788 ± 0.07	0.0952 ± 0.25	0.1 ± 0.049	-0.0177 ± 0.088	0.151 ± 0.27	0.00707 ± 0.075
CNC(=O)c1ccc(N2C(=S)N(c3ccc(C#N)c(C(F)(F)F)c3)C(=O)C2(C)C)cc1F [Enzalutamide (MDV3100)]	0.195 ± 0.29	0.256 ± 0.25	0.0759 ± 0.26	0.146 ± 0.47	0.153 ± 0.053	0.342 ± 0.43	0.0633 ± 0.033	0.0109 ± 0.3	0.162 ± 0.071	0.166 ± 0.17	0.0241 ± 0.038	0.0942 ± 0.19
CS(=O)(=O)c1cccc(CNc2nc(Nc3ccc4c(c3)CCC(=O)N4)ncc2C(F)(F)F)c1	0.0768 ± 0.12	-0.054 ± 0.17	-0.434 ± 0.16	-0.497 ± 0.15	0.132 ± 0.12	0.0181 ± 0.028	-0.187 ± 0.33	-0.367 ± 0.014	0.0102 ± 0.027	-0.0461 ± 0.045	-0.0576 ± 0.25	-0.25 ± 0.15
Cc1ccc(NC(=O)c2ccc(CN3CCN(C)CC3)cc2)cc1Nc1nccc(-c2cccnc2)n1 [Imatinib (STI571)]	-0.15 ± 0.41	0.0786 ± 0.13	0.0564 ± 0.096	-0.0345 ± 0.19	0.0197 ± 0.046	-0.0062 ± 0.008	-0.0723 ± 0.061	-0.00373 ± 0.042	0.0326 ± 0.024	0.012 ± 0.044	0.0249 ± 0.11	-0.0382 ± 0.052
C[C@H](Cn1cnc2c(N)ncnc21)OCP(=O)(O)O [Tenofovir]	-0.0554 ± 0.21	-0.16 ± 0.2	-0.19 ± 0.03	-0.248 ± 0.36	-0.0732 ± 0.29	0.189 ± 0.44	0.086 ± 0.4	-0.183 ± 0.27	-0.0847 ± 0.16	-0.0488 ± 0.079	-0.0581 ± 0.06	-0.134 ± 0.12
CCCc1nc2c(C)cc(-c3nc4ccccc4n3C)cc2n1Cc1ccc(-c2ccccc2C(=O)O)cc1 [Telmisartan]	0.141 ± 0.17	0.303 ± 0.24	0.3 ± 0.36	0.405 ± 0.31	0.0475 ± 0.25	0.126 ± 0.069	0.156 ± 0.033	0.104 ± 0.062	0.084 ± 0.13	0.126 ± 0.087	0.0829 ± 0.019	0.0875 ± 0.13
CC(C)C[C@H](NC(=O)[C@@H](NC(=O)c1cccc(-c2ccccc2)n1)[C@@H](C)O)B(O)O	-0.953 ± 0.18	-1.64 ± 0.61	-0.99 ± 1.1	-1.15 ± 0.81	-0.229 ± 0.047	-0.234 ± 0.079	-0.26 ± 0.1	-0.194 ± 0.093	-0.108 ± 0.067	-0.0762 ± 0.08	-0.0627 ± 0.047	-0.0354 ± 0.046
Cc1[nH]c(/C=C2\C(=O)Nc3ccc(S(=O)(=O)Cc4c(Cl)cccc4Cl)cc32)c(C)c1C(=O)N1CCC[C@@H]1CN1CCCC1	0.471 ± 0.21	0.62 ± 0.11	0.561 ± 0.12	0.0238 ± 0.34	0.151 ± 0.012	0.361 ± 0.27	0.132 ± 0.16	-0.185 ± 0.063	0.182 ± 0.042	0.272 ± 0.13	0.183 ± 0.1	-0.107 ± 0.038
